# Results: PubChem BioAssay AID504832 (National Center for Advancing Translational Sciences (NCATS), 2011)
# Where “and” joins values, the source holds several entries; their conditions need not be identical. Equal entries are not always repeated. Hit rate of the full screen: of about 310,000 compounds, about 18,000 (5.8%) were called active. This list was built around the results that the source calls inconclusive (neither active nor inactive); the mix of calls is not that of the screen. Calls come from the whole dose curve; as a rule, active = well fitted inhibition curve with a large enough effect; inconclusive = small, poorly fitted or top-dose-only effect, or another doubt; inactive = no such curve, though single readings can be large or run the other way. Potencies beside an inconclusive call are fits to weak or partial responses and may not hold up.
# Assay: Primary qHTS for delayed death inhibitors of the malarial parasite plastid, 48 hour incubation
# Settings: P. falciparum luciferase growth in erythrocytes; series mostly up to 28.7 µM; activity change, negative = inhibition: at the top concentration
# Summary of the method: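 Firefly luciferase activity from engineered P. falciparum reports growth; inhibitors lower the luminescent signal. Cultures contained 2% hematocrit erythrocytes at 0.1% final parasitemia.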
# % is set by controls: 0 for no effect and ±100 for the full control effect; potency is the fitted concentration of half-maximal effect; tags give direction and shape of the fitted curve.
SMILES,Potency,"activity change, negative = inhibition"
COc1ccc(C/C(C)=N/Nc2nc(C)cc(=O)[nH]2)cc1,"inconclusive: 18.5 µM [inhibitor, single point]",–
CCOC(=O)C1=C(C)N(c2ccccc2)C(=O)/C1=C\c1ccco1,–,inactive: 19.6%
COc1ccc2nc(COC(=O)c3cccs3)c(C(C)=O)[n+]([O-])c2c1,–,inactive: 20.3%
COc1ccc(C(=O)COC(=O)C2CCN(c3ccc(C(F)(F)F)cn3)CC2)c(OC)c1,"inconclusive: 18.5 µM [inhibitor, single point]",–
COc1ccc(S(=O)(=O)N2CCC(C)CC2)cc1N(C)S(=O)(=O)c1ccccc1,"inconclusive: 11.7 µM [inhibitor, single point]",–
CCOc1ccc(CNC(=O)CCCn2ccc3cc(S(=O)(=O)N4CCCC4)ccc32)cc1,"inconclusive: 13.1 µM [inhibitor, partial curve, poor fit]",–
Cc1nn(CCC#N)c(N)c1C1(O)C(=O)Nc2c(Cl)cc(Cl)cc21 (stereo not drawn),"inconclusive: 13.1 µM [inhibitor, single point]",–
COc1ccc(C(=O)NCC2CCCO2)cc1S(=O)(=O)N1CCCc2ccccc21 (stereo not drawn),"inconclusive: 11.7 µM [inhibitor, partial curve, poor fit]",–
CCC(C)(C)c1ccc(OCCCC[n+]2cccc(C)c2C)c(C(C)(C)CC)c1,active: 0.828 µM,–
CCC(C)(C)n1nnnc1C(c1ccc(OC)c(OC)c1)N1CCN(c2ccc(F)cc2)CC1 (stereo not drawn),active: 13.1 µM,–
CCN1C(=S)N[C@@H](c2cccc(F)c2)C(C(=O)OC)=C1C,"inconclusive: 14.7 µM [inhibitor, partial curve, poor fit]",–
OC(CNCC#Cc1ccccc1)c1ccccc1 (stereo not drawn),"inconclusive: 13.1 µM [inhibitor, partial curve]",–
CC[N+](C)(C)Cc1ccccc1Br,"inconclusive: 5.1 µM [inhibitor, partial curve] and inconclusive: 14.7 µM [inhibitor, partial curve, poor fit]",–
O=C(NCCc1ccccc1)c1ccccc1NC(=O)C1CCCO1 (stereo not drawn),–,inactive: 101%
CCc1cccc(CC)c1NC(=S)NCC(c1cccnc1)N(C)C (stereo not drawn),"inconclusive: 18.5 µM [inhibitor, single point]",–
Cc1noc(C)c1COc1ccc(C(=O)N2CCN(c3cccc(Cl)c3)CC2)cc1,"inconclusive: 13.1 µM [inhibitor, single point]",–
COc1ccc(S(=O)(=O)c2ccc(OC)c(OC)c2)cc1OC,–,inactive: -5.72%
CC(=O)NC/C(C)=N\Nc1ccc([N+](=O)[O-])cc1,–,inactive: -10.8%
O=C(NCC1CCCO1)C1CCCN1C(=O)Nc1ccccc1[N+](=O)[O-] (stereo not drawn),–,inactive: 36.9%
N#C/C(=N\Nc1cccc([N+](=O)[O-])c1)C(=O)c1ccc(Br)cc1,"inconclusive: 6.57 µM [inhibitor, partial curve, poor fit]",–
Cc1ccc(C2C3=C(CCCC3=O)N=C3c4ccccc4C(=O)C32)cc1 (stereo not drawn),"inconclusive: 13.1 µM [inhibitor, single point]",–
CC12CCC(c3c(CO)nn(-c4ccccc4)c31)C2(C)C (stereo not drawn),"inconclusive: 9.28 µM [inhibitor, partial curve]",–

SMILES,Potency,"activity change, negative = inhibition"
CCOc1cccc(NC(=O)C2CCCN(S(=O)(=O)c3ccc(OC)cc3)C2)c1 (stereo not drawn),active: 4.65 µM,–
c1ccc(-c2c3ccccc3nc3[nH]c4ccccc4c23)cc1,"inconclusive: 18.5 µM [inhibitor, single point]",–
C=CCN(c1ccccc1)S(=O)(=O)c1cccc(C(=O)NC2CCC(O)CC2)c1 (stereo not drawn),"inconclusive: 10.4 µM [inhibitor, single point]",–
Cc1ccc(Oc2coc3cc(O)ccc3c2=O)cc1,–,inactive: -10.9% [at 0.00184 µM]
COc1ccc(S(=O)(=O)N2CCCC(C(=O)Nc3ccc(NC(=O)c4ccccn4)cc3)C2)cc1 (stereo not drawn),"inconclusive: 0.928 µM [inhibitor, partial curve, poor fit]",–
Cc1ccc(-n2ncc(Cl)c2C(=O)NCc2ccccc2)cc1,–,inactive: 88.6%
O=C(N/N=C/c1ccc[nH]1)c1cc(-c2cccs2)nc2ccccc12,"inconclusive: 10.4 µM [inhibitor, single point]",–
COc1ccc(-c2c(C)oc3c(CN4CCN(C)CC4)c(O)ccc3c2=O)cc1,–,inactive: -5.35%
c1coc(-c2nnc(NC3=NCCC3)o2)c1,–,inactive: 85.2%
Cc1nc(NCCc2ccc(F)cc2)c2nnn(Cc3ccccc3)c2n1,–,inactive: -9.32%
Cc1cc(C)c(NC(=O)CNC(=O)c2ccc3c(=O)n4c(nc3c2)CCC4)c(C)c1,"inconclusive: 16.5 µM [inhibitor, single point]",–
CCOC(=O)C(=Cc1c[nH]c2ccc(S(=O)(=O)N(C)C)cc12)C(=O)OCC,"inconclusive: 13.1 µM [inhibitor, single point]",–
O=S(=O)(c1ccc(N2CCN(Cc3ccccc3)CC2)nc1)N1CCCC1,–,inactive: -18.2%
Cc1ccc(NC(=O)COc2ccc(/C=C3/NC(=O)NC3=O)cc2)cc1,"inconclusive: 9.28 µM [inhibitor, single point]",–
COc1ccc(S(=O)(=O)N2c3ccccc3OCC2C(C)(C)C)cc1 (stereo not drawn),active: 11.7 µM,–
Cc1cccc(-c2nnc(SCC#N)n2-c2cccc(Cl)c2)c1,"inconclusive: 18.5 µM [inhibitor, single point]",–
Cc1ccc(CSc2ncnc3onc(C)c23)cc1,"inconclusive: 16.5 µM [inhibitor, single point]",–
O=C(c1ccc(OCc2cn3ccccc3n2)cc1)N1CCN(S(=O)(=O)c2ccccc2F)CC1,"inconclusive: 11.7 µM [inhibitor, single point]",–
COC(=O)C1=C(c2ccc(F)cc2F)C[C@@H]2CC[C@H]1N2C(=O)N1CCC(C)CC1,"inconclusive: 11.7 µM [inhibitor, partial curve]",–
COc1cccc(CNc2nc3ccccc3n2CCN2CCCCC2)c1OC,"inconclusive: 14.7 µM [inhibitor, partial curve, poor fit]",–
CN(C)N1C(N)=C(C#N)C(c2cccc(Cl)c2)C2=C1CCCC2=O (stereo not drawn),"inconclusive: 5.22 µM [inhibitor, partial curve]",–
